Measurements taken from PubChem BioAssay (NCATS).
Several values for one entry are separate records, joined by “and”; a condition that tells them apart may be missing. Equal entries are not always repeated. Inconclusive results, whose numbers are uncertain, are shown with a selection of clear calls. For some of these results: Where the call is inconclusive, the potency comes from a doubtful curve fit. Activity calls are given as the source filed them. Unless noted, calls follow the shape of the dose curve; as a rule, active = well fitted curve in the direction sought with a large enough effect; inconclusive = small, poorly fitted or top-dose-only effect, or another doubt; inactive = no such curve, though single readings can be large; an effect the other way counts as inactive or inconclusive.

How the values were obtained:
[1] = AP1 Signaling Pathway (AID 357; active = well fitted curve in either direction with a large enough effect, not every such curve was filed as active; inconclusive = small, poorly fitted or top-dose-only effect, or another doubt; also: top concentration of the series differs between compounds; % is scaled to controls: 0 for no effect and ±100 for the full control effect); settings: ME-180 AP-1-bla reporter, EGF-induced, beta-lactamase ratio, 5 h; at 17.2 µM (top of the series) unless noted
How it was run: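 Modulation of EGF-driven AP-1 transcription was assessed with a beta-lactamase reporter in ME-180 cells. Compound and EC50 EGF were co-incubated 5 hours at 37 °C before 2.5-hour CCF4 loading at room temperature and dual-emission reading.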

[2] = Cell Viability - BJ (AID 421; calls by dose curve;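 also: potency is read from the fitted curve at half-maximal effect; cells exposed to compound for 40 hours at 37 °C before readout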); settings: BJ fibroblast viability, qHTS
How it was run: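 Normal human BJ foreskin fibroblasts, 1500/well in complete medium, treated 40 hr at 37 °C. Cellular ATP by CellTiter-Glo luminescence; normalized to DMSO and 100 uM tamoxifen, AC50 from Hill fit.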

[3] = Cell Viability - SK-N-SH (AID 435; calls by dose curve; also: potency is read from the fitted curve at half-maximal effect); settings: SK-N-SH neuroblastoma cell viability qHTS
How it was run: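 qHTS cytotoxicity: CellTiter-Glo ATP luminescence after 40 h compound exposure of human neuroblastoma SK-N-SH cells at 37 °C. AC50 derived by Hill-equation fitting, with DMSO as basal and 100 uM tamoxifen as full inhibition.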

[4] = NFAT Signaling Pathway (AID 444; active = well fitted curve in either direction with a large enough effect, not every such curve was filed as active; inconclusive = small, poorly fitted or top-dose-only effect, or another doubt;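 also: carbachol stimulus at about its EC50 of 1 µM final; % is scaled to controls: 0 for no effect and ±100 for the full control effect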); settings: Jurkat NFAT-bla M1, carbachol, beta-lactamase ratio, 5 h; at 17.2 µM (top of the series) unless noted
How it was run: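 Jurkat cells with NFAT-driven β-lactamase reporter and co-expressed M1 receptor, stimulated with carbachol (final 1 uM, ~EC50), compound titration, 5 h at 37 °C. CCF4 loaded 1 h at RT; 460/530 nm ratio gave %activity and AC50.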

[5] = Stat Signaling Pathway (AID 446; active = well fitted curve in either direction with a large enough effect, not every such curve was filed as active; inconclusive = small, poorly fitted or top-dose-only effect, or another doubt;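 also: ME-180 cervical cancer cells given 40 pM IL-6 alongside compound; SIE-controlled beta-lactamase reporter measured as 460/530 nm FRET emission ratio; top concentration of the series differs between compounds; % is scaled to controls: 0 for no effect and ±100 for the full control effect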); settings: ME-180 (cervical carcinoma) SIE beta-lactamase reporter, IL-6 stimulated, 5 h; at 7.69 µM (top of the series) unless noted
How it was run: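 Normalization used AC90 stimulation (300 pM IL-6) and AC90 inhibition (125 nM pan-JAK inhibitor at 40 pM IL-6). The underlying signal is SIE-driven beta-lactamase in ME-180 cells after 5 h IL-6 exposure with compound.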

[6] = biological target: Mitogen-activated protein kinase 10 (Mus musculus) (UniProt Q61831); experiment: JNK3 AlphaScreen Assay (AID 530; active = well fitted curve in either direction with a large enough effect, not every such curve was filed as active; inconclusive = small, poorly fitted or top-dose-only effect, or another doubt;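 also: kinase came from lysate of stimulated human HepG2 cells; signal reports phosphorylation of biotinylated GST-cJun 1-79 at Ser73 with 10 µM ATP; potency is read from the fitted curve at half-maximal effect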); settings: JNK3 lysate, c-Jun phosphorylation; activity change, negative = inhibition: at 57.1 µM (top of the series)
How it was run: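 Activity was read by AlphaScreen after JNK3-containing HepG2 lysate (cytokine pre-activated) phosphorylated biotinylated GST-cJun with 10 uM ATP at room temperature. Phospho-Ser73 cJun antibody with Protein-A acceptor beads provided detection.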

[7] = Cell Viability - Renal Proximal Tubule (AID 545); settings: renal proximal tubule cells viability, primary cells of rat origin; activity change, negative = cytotoxicity: at 91.7 µM (top of the series);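 also: cells exposed to compound for 40 hours; 0% = DMSO only and -100% = 100 µM tamoxifen; nearly all actives have a fitted effect of over 40% in size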
How it was run: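 Viability taken as intracellular ATP (CellTiter-Glo luminescence) after 40 hr, 37 °C compound treatment of primary proximal tubule cells from rat kidney, 1000 cells/well; Hill-equation fits of qHTS concentration-response data gave AC50.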

[8] = biological target: 3',5'-cyclic-AMP phosphodiesterase 4B (Homo sapiens) (UniProt Q07343); experiment: qHTS Assay for Inhibitors of PDE-IV (AID 607; active = well fitted activation curve with a large enough effect in the main read-out, with a control signal flat, not every such curve was filed as active; inconclusive = small, poorly fitted or top-dose-only effect, or effect the other way, or a change in a side signal; also: % of control where 0% means no effect); settings: HEK293 ACTOne CNG channel cells, membrane potential fluorescence; activation (PDE inhibition): at 22.9 µM (top of the series)
How it was run: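 HEK293 ACTOne cells with CNG channel (1000/well), endogenous PDE4; membrane potential dye, compounds up to 22.9 uM final. Fluorescence Ex 535/Em 590; RO 20-1724 (100 uM final) as reference.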

[9] = biological target: Cytochrome P450 2C9 (Homo sapiens) (UniProt P11712); experiment: qHTS Assay for Inhibitors and Substrates of Cytochrome P450 2C9 (AID 883); settings: recombinant CYP2C9, luciferin-H luminescence, 60 min; activity change, negative = inhibition: at 57.1 µM (top of the series); also: % is scaled to controls: 0 for no effect and ±100 for the full control effect; nearly all actives have a fitted effect of over 60% in size
How it was run: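 Signal: luciferase luminescence reporting luciferin produced by CYP2C9. Conditions: 10nM enzyme, Luciferin-H 100uM at KM, 25mM KPO4, 37C, 60 min NADPH-driven reaction. Reference: 57uM sulphaphenazole as 100% inhibition.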

[10] = Cell Viability - LYMP2-001 (AID 921); also: potency is read from the fitted curve at half-maximal effect; nearly all actives have a fitted effect of over 70% in size
How it was run: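 Cellular ATP loss read by luciferase luminescence after 24 h compound exposure at 37 C in complete medium. LYMP2-001 lymphoblastoid cells, 2500/well; qHTS concentration-response data fitted with Hill equation for AC50.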

[11] = MultiTox-Fluor Cytotoxicity Assay - LYMP1-001 - Live Cells (AID 947); also: potency is read from the fitted curve at half-maximal effect
[12] = Cell Viability - LYMP1-002 - Assay at 16 hr (AID 948); also: potency is read from the fitted curve at half-maximal effect
How it was run: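 ATP luminescence (CellTiter-Glo) was measured after 16 hr compound exposure at 37 C of 2500 lymphoblastoid LYMP1-002 cells per well. Concentration-response curves were fitted with the Hill equation to give AC50.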

[13] = MultiTox-Fluor Cytotoxicity Assay - LYMP1-002 - Live Cells (AID 955);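 also: potency is read from the fitted curve at half-maximal effect; cells exposed to compound for 16 hours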
How it was run: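 After 16 h compound exposure at 37 C, live LYMP1-002 lymphoblastoid cells (2500/well) were quantified by cleavage of cell-permeant GF-AFC substrate, read at 405/510 nm after 60 min. Concentration-response fitted with Hill equation for AC50.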

[14] = MultiTox-Fluor Cytotoxicity Assay - LYMP1-003 - Live Cells (AID 962);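 also: potency is read from the fitted curve at half-maximal effect; cells exposed to compound for 16 hours at 37 °C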
How it was run: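 Live-cell protease activity (GF-AFC substrate, 405/510 nm, 60 min at room temperature) after 16 h, 37 C compound exposure of human lymphoblastoid LYMP1-003 cells; concentration-response fitted to the Hill equation for AC50.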

[15] = Cell Viability - LYMP1-003 - Assay at 40 hr (AID 964); also: potency is read from the fitted curve at half-maximal effect; nearly all actives have a fitted effect of over 60% in size
How it was run: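 Viability is taken as cellular ATP, read by CellTiter-Glo luminescence after 40 h of compound exposure at 37 C. Cells: human lymphoblastoid line LYMP1-003 at 2500/well; AC50 values derived by Hill-equation fitting of concentration-response data.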

[16] = Cell Viability - LYMP2-003 (AID 965);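 also: potency is read from the fitted curve at half-maximal effect; cells exposed to compounds for 24 h before reading; nearly all actives have a fitted effect of over 50% in size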
How it was run: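 CellTiter-Glo luminescence quantified ATP loss after 24 h compound treatment of LYMP2-003 lymphoblastoid cells at 37 C. Titration series were fitted with the standard Hill equation to give AC50.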

[17] = Cell Viability - LYMP2-004 (AID 966); also: potency is read from the fitted curve at half-maximal effect; nearly all actives have a fitted effect of over 65% in size
How it was run: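 AC50 values come from Hill modelling of concentration-dependent loss of intracellular ATP, measured by CellTiter-Glo luminescence. Human LYMP2-004 lymphoblastoid cells (2500/well) were exposed to compound for 24 h at 37 C.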

[18] = Cell Viability - LYMP2-005 (AID 967); also: potency is read from the fitted curve at half-maximal effect
How it was run: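 LYMP2-005 human lymphoblastoid cells (2500/well) were treated with compounds for 24 h at 37 C. Intracellular ATP was then measured by CellTiter-Glo luminescence after 30 min at room temperature. AC50 values came from Hill-equation fits of qHTS concentration-response data.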

[19] = Cell Viability - LYMP2-013 (AID 970); settings: LYMP2-013 lymphoblastoid cells viability; activity change, negative = cytotoxic: at 92.2 µM (top of the series); also: potency is read from the fitted curve at half-maximal effect; nearly all actives have a fitted effect of over 55% in size
How it was run: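 qHTS cytotoxicity: ATP-dependent luminescence (CellTiter-Glo, 30 min room temperature) read after 24 h compound exposure at 37 C of 2500 LYMP2-013 lymphoblastoid cells per well. Concentration-response fitted with Hill equation to give AC50.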

[20] = Cell Viability - LYMP2-017 (AID 972); also: potency is read from the fitted curve at half-maximal effect; nearly all actives have a fitted effect of over 55% in size
How it was run: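 CellTiter-Glo luminescence (cellular ATP, 30 min RT) measured cytotoxicity after 24 hr compound treatment at 37 C. Cells were a human lymphoblastoid line, LYMP2-017, plated at 2500/well and incubated 5 hr first; concentration-response fitted with Hill equation for AC50.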

[21] = Cell Viability - LYMP2-019 (AID 973); also: potency is read from the fitted curve at half-maximal effect; nearly all actives have a fitted effect of over 55% in size
How it was run: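 AC50 values come from Hill-equation fits of luminescent intracellular ATP (CellTiter-Glo, 30 min, room temperature) following 24 h compound exposure at 37 C. Cells: LYMP2-019 lymphoblastoid line, 2500 per well, in complete culture medium.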

[22] = Cell Viability - LYMP2-025 (AID 976); settings: LYMP2-025 lymphoblastoid cell viability; activity change, negative = cytotoxicity: at 92.2 µM (top of the series); also: potency is read from the fitted curve at half-maximal effect
How it was run: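 Cytotoxicity read as loss of intracellular ATP (luciferase luminescence) after 24 h compound treatment at 37 C. Uses LYMP2-025 lymphoblastoid cells in 1536-well format; Hill-equation modelling gives AC50; tetraoctylammonium bromide as positive control.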
Tags tell the direction and shape of the fitted curve.

UniProt P11712, sequence (P11712 whole entry, looked up): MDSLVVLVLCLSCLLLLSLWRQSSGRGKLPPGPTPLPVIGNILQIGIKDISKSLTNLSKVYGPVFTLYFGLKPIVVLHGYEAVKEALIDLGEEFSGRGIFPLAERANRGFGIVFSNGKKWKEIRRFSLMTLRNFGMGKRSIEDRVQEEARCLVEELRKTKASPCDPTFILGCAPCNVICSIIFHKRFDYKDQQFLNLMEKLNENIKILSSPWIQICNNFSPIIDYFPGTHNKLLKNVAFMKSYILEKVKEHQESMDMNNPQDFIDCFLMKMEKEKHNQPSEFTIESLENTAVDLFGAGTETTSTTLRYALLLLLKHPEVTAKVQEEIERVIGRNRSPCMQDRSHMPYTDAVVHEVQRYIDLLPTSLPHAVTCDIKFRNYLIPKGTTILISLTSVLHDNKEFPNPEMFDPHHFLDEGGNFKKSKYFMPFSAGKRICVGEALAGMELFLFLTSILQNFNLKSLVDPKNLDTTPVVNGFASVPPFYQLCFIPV
UniProt Q07343, sequence (Q07343 whole entry, looked up): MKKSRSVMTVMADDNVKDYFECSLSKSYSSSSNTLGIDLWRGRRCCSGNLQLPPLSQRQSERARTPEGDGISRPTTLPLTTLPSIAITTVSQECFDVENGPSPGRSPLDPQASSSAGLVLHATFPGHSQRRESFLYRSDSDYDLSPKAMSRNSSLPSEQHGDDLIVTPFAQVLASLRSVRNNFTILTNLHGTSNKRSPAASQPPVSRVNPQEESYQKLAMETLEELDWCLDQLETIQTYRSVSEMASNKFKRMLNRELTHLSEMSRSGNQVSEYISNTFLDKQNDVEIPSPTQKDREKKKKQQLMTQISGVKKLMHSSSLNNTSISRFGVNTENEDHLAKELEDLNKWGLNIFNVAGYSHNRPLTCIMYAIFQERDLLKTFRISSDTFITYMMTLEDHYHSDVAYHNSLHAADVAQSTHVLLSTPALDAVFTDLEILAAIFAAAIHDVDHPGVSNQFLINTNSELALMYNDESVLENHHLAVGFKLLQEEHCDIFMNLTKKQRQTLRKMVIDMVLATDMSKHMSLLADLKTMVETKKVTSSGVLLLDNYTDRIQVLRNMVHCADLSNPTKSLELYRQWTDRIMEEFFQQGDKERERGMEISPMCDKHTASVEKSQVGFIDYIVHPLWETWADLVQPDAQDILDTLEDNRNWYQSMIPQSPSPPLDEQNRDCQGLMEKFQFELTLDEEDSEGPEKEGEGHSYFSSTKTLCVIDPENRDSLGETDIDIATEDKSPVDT

N=C1C=CC(=C(c2ccc(N)cc2)c2ccc(N)cc2)C=C1
inactive: activity, negative = inhibition [5] -20.9% | Potency [8] | activity change, negative = inhibition [9] -22.8% [at 11.4 µM]
inconclusive: activity change, negative = inhibition [1] 30.3% [activator] [at 7.69 µM] | Potency [2] 13.8 µM [partial curve] | Potency [3] 43.7 µM [partial curve] | activity change, negative = inhibition [4] -66.3% [inhibitor] [at 7.69 µM] | Potency [6] 15.8 µM [inhibitor, partial curve] and 3.16 µM [inhibitor, partial curve] | activity change, negative = cytotoxicity [7] -79.6% | Potency [10] 10 µM [cytotoxic, full curve, poor fit] | Potency [13] 12.6 µM [cytotoxic, partial curve] | Potency [14] 50.1 µM [cytotoxic, partial curve]
active: Potency [11] 15.8 µM | Potency [12] 25.1 µM | Potency [15] 12.6 µM | Potency [16] 15.8 µM | Potency [17] 12.6 µM | Potency [18] 12.6 µM | Potency [19] 12.6 µM | Potency [20] 12.6 µM | Potency [21] 7.94 µM | Potency [22] 10 µM
